The source gives no read counts; variants with many changes may rest on few reads.
B1: OR4K15 (parent)
chain: GUUAACGGUCAUAGGCCAUGGAAACUAGGAGCACCAUUUCGCUGCCAGUGAAGAAAUGAACAAAGAAAAUCUGGGCCAGGCAGGCAUCAAAAGAAAUAGUCUUGCGCUCAACCAGAAAGUCUGUAAUCAUUUUAAGGGUA

Variants of: B1
Assay: self-cleavage, relative activity (ratio to wild type); higher = more cleavage; in vitro, sequencing; the parent is a self-cleaving ribozyme
U49C A69G A92G showed a self-cleavage of 1.32.
A47U U87C A95G gave a self-cleavage of 1.15.
Variant U49C A89G A135G has a self-cleavage of 1.51.
A51G A54C A78G A86C A134G gave a self-cleavage of 0.05.
U49C A68G U124C gave a self-cleavage of 0.57.
A51G A52G U120A A135G showed a self-cleavage of 1.11.
In the case of U49C A62G A82U A90G A110G U130C, the self-cleavage is reported as 0.
With A47U U57G A86G the self-cleavage was 1.43.
Variant U49C A55G A94G has a self-cleavage of 0.91.
For A47U U70C A78C A117G U127C, the self-cleavage was 0.09.
G50A U103C U120A gave a self-cleavage of 1.73.
Work on U49C A67G U120A yielded a self-cleavage of 1.21.
With U49C U57C A60G C105U the self-cleavage was 0.03.
U49C A51G A68G U132C gave a self-cleavage of 1.08.
With U49C A59G A96G U97C the self-cleavage was 0.52.
With U49C A62G U120C the self-cleavage was 0.73.
U49G U100C A110C showed a self-cleavage of 0.62.
In the case of G50A A51U A96G U97A A98G, the self-cleavage is reported as 1.53.
A51G A52G U72A U108C gave a self-cleavage of 0.15.
For U49G U57C A91G A94G, the self-cleavage was 0.74.
For U49A A60G C81U, the self-cleavage was 0.27.
Variant U49A A67G A68G U131C has a self-cleavage of 0.71.
U49A A92G U103C showed a self-cleavage of 0.79.
Work on U49C A63G U100C yielded a self-cleavage of 2.83.
Variant U49C A68G C107U C112U has a self-cleavage of 0.02.
Variant G50A A52G A89U has a self-cleavage of 1.84.
In the case of U49C U87A U102A, the self-cleavage is reported as 1.06.
For G48A G53U A82G A116G, the self-cleavage was 0.2.
With U49C A62G A126G the self-cleavage was 1.05.
In the case of A47U A89G A91G, the self-cleavage is reported as 0.92.
For G50U A51G A68G U127C, the self-cleavage was 0.83.
Variant G48U A89G C109A U120A has a self-cleavage of 0.1.
Variant U49G C85A U127C has a self-cleavage of 0.49.
Work on U49A U87G G104U A140G yielded a self-cleavage of 0.02.
Variant U49A A96G C113U has a self-cleavage of 0.08.
A47U A78C U108A gave a self-cleavage of 0.01.
With U49C A56G U122G the self-cleavage was 1.53.
With U49C A67G A91G the self-cleavage was 0.57.
U49A A55G A63G A111G gave a self-cleavage of 0.16.
Variant U49A U102C A134U has a self-cleavage of 2.79.
A51G A52G A66U showed a self-cleavage of 1.45.
U49C A82G A86G U97C showed a self-cleavage of 0.11.
In the case of U49A U102A A110G, the self-cleavage is reported as 0.07.
In the case of U49C A54G U133C, the self-cleavage is reported as 2.07.
Variant U49C A52G A63G A118G has a self-cleavage of 1.25.
For U49C A94C A116G, the self-cleavage was 0.2.
With A47U A91G U108C the self-cleavage was 0.02.
Work on U49C A60U A98G A135G yielded a self-cleavage of 0.55.
U49A A64U A68G gave a self-cleavage of 0.88.
In the case of U49C A59U A91G, the self-cleavage is reported as 0.73.
Variant U49C A68U A95G U122A G138U has a self-cleavage of 2.6.
With A47U U57G A69G A89C A110G A116G A134G the self-cleavage was 0.
With U49C A91G U130C A140G the self-cleavage was 0.57.
Variant U49C A54G A95G A110G has a self-cleavage of 0.16.
U49C A68G A91G A94G G138U gave a self-cleavage of 1.25.
U49A A69G A86G showed a self-cleavage of 1.61.
In the case of U49C A67G A92G U132A, the self-cleavage is reported as 1.03.
Work on U49C A55G A68G U87C A94G A95G A118G yielded a self-cleavage of 0.49.
Variant U49A U87A A116U has a self-cleavage of 0.
With U49C A52G A59G U70C U122C A129G the self-cleavage was 0.16.
G48A A60C U87C U97C showed a self-cleavage of 0.9.
For U49C A52G C71U A90U A129G, the self-cleavage was 0.13.
Work on A47U A126G U127C yielded a self-cleavage of 0.21.
For U49C A78G A96G, the self-cleavage was 0.15.
U49A A56C A129G showed a self-cleavage of 1.02.
Variant A47U U72A A78G U87C has a self-cleavage of 0.21.
For U49C A60G U120C, the self-cleavage was 0.8.
U49C U72C U122C gave a self-cleavage of 0.02.
In the case of U49C A66G A92G U103A, the self-cleavage is reported as 0.42.
With U49A A56U A94G the self-cleavage was 1.55.
Work on A51G A52U A55G U100A U102C yielded a self-cleavage of 1.17.
U49C A59G G136U showed a self-cleavage of 1.43.
For A47U U97A U132C, the self-cleavage was 1.25.
For U49C A52G A59G A66G A140G, the self-cleavage was 1.06.
With U49C A68U U70C the self-cleavage was 0.42.
U49C A91G A111G showed a self-cleavage of 0.01.
Work on G48U A62C A92U yielded a self-cleavage of 1.89.
U49C A94G U103C showed a self-cleavage of 1.32.
U49G A55G A60G showed a self-cleavage of 1.12.
Work on U49A A52G A67G yielded a self-cleavage of 1.33.
Variant A47U A96U U130C has a self-cleavage of 0.22.
With U49G A78C U131C the self-cleavage was 0.12.
U49C A55G A59G A116G showed a self-cleavage of 0.17.
In the case of U49C A56G C105U U120G U122C U130C A140U, the self-cleavage is reported as 0.03.
In the case of U49C U87C A117G, the self-cleavage is reported as 1.72.
G50U A62U A134G gave a self-cleavage of 1.56.
Work on G48A A96C A126G yielded a self-cleavage of 0.4.
Variant U49C A62G A64U A95G has a self-cleavage of 1.2.
Variant U49C A96G U102A U122C has a self-cleavage of 0.38.
Variant A47U A69U U87C has a self-cleavage of 0.69.
Work on A51C C81U A94G U127C yielded a self-cleavage of 0.01.
In the case of U49A A68G A98U U132G, the self-cleavage is reported as 2.08.
For U49C A95G A118G U139C, the self-cleavage was 1.3.
For U49C A56G A98U A126U, the self-cleavage was 0.
With U49G A114G U127C U139C the self-cleavage was 0.04.
U49C A51G U57C A60G U132C gave a self-cleavage of 0.89.
For U49C A66C G74A U87C, the self-cleavage was 0.05.
Variant U49C A64G A86U A94G has a self-cleavage of 1.45.
Work on U49A A91G A125G yielded a self-cleavage of 0.26.
Work on U49A U57A A82U A95G A96G U97A U100C yielded a self-cleavage of 0.44.
G50A A51U A78G C113U A118G showed a self-cleavage of 0.
U49C A52G A69G A78U U127A U131C gave a self-cleavage of 0.57.
In the case of U49C A52G U100G A117G, the self-cleavage is reported as 1.51.
U49C U122C U130C gave a self-cleavage of 0.47.
Variant G48A A64U A94G A117G has a self-cleavage of 1.22.
G50U A66G C112U A125U showed a self-cleavage of 0.03.
U49A U132C U139C showed a self-cleavage of 0.94.
With G50A A82G A96G U120C U124C the self-cleavage was 0.12.
U49A A52G A63G gave a self-cleavage of 1.78.
U49C A94G A126G showed a self-cleavage of 1.01.
A51G A52U A89C gave a self-cleavage of 0.67.
Variant A47U A118G U132C has a self-cleavage of 0.34.
With G50A A60G A116G the self-cleavage was 0.64.
U49C A55G A135U gave a self-cleavage of 1.58.
With U49C A62G A96C the self-cleavage was 0.38.
For A51G A52G A110G, the self-cleavage was 0.14.
In the case of U49C A94G U97C, the self-cleavage is reported as 1.05.
With U49A G123A U132C the self-cleavage was 0.9.
U49C A94G A96G showed a self-cleavage of 1.33.
With U49C A55G A56G U87A A135G the self-cleavage was 0.94.
For G50A A55G U102C, the self-cleavage was 1.59.
Variant A51G A52G A82G has a self-cleavage of 0.59.
Work on U49C A98G A117G yielded a self-cleavage of 0.46.
In the case of A47U U49A A69G U87A, the self-cleavage is reported as 1.03.
With A51C A69G U72C the self-cleavage was 0.24.
Work on A47U A91G A96G yielded a self-cleavage of 1.14.
U49C A51G A69G U72C U103C U132C gave a self-cleavage of 0.06.
With A47U A94G A129C A135G the self-cleavage was 0.2.
Work on A47U A89G A117G A134G yielded a self-cleavage of 0.47.
Variant U49C A110G A140G has a self-cleavage of 0.08.
With U49C A55G U131C the self-cleavage was 1.55.
Variant U49C A78U A116G has a self-cleavage of 0.07.
Work on U49A A51U A110G yielded a self-cleavage of 0.24.
For A47U U57C U108C, the self-cleavage was 0.01.
U49C U57C U70C gave a self-cleavage of 0.31.
U49C A66G A69G A114U A118G gave a self-cleavage of 0.
Work on A47U U57C A78G yielded a self-cleavage of 0.18.
U49C U103C A111G showed a self-cleavage of 0.01.
Variant U49C A56U A63U has a self-cleavage of 0.56.
In the case of U49A A63G U70C G106A U124C, the self-cleavage is reported as 0.01.
G50C A54G U102C gave a self-cleavage of 2.11.
Work on U49C U72A U87A U122C yielded a self-cleavage of 0.15.
Work on U49C A51U G83A U133A yielded a self-cleavage of 1.27.
A51C A67G A68G showed a self-cleavage of 1.38.
With U49C A67G A96G A98G the self-cleavage was 0.29.
In the case of U49C A69C A94G, the self-cleavage is reported as 2.21.
In the case of G48A A95G A134G, the self-cleavage is reported as 1.46.
For U49C A51C A69U U122C, the self-cleavage was 0.08.
Work on U49C A69G A92G U102C yielded a self-cleavage of 1.66.
With U49A A90G U120C A129G the self-cleavage was 0.09.
Work on U49C A68U U122C yielded a self-cleavage of 0.75.
U49C U57C A89U U131C gave a self-cleavage of 0.71.
Variant G50A A51C A55G U87C has a self-cleavage of 1.09.
Variant G48A A94U G138C has a self-cleavage of 1.75.
A51C A67G A82G showed a self-cleavage of 0.68.
With U49A A54U A94G A95G the self-cleavage was 1.6.
For U49C U57A A114G, the self-cleavage was 0.13.
With U49C A52G A95G the self-cleavage was 1.66.
For U49C A78U A86G, the self-cleavage was 0.05.
U49C A63G A126G showed a self-cleavage of 1.32.
For U49C A51U U103C, the self-cleavage was 0.29.
For A47U A69G A89G U100A A110G A129G, the self-cleavage was 0.01.
In the case of U49C A98U A126U, the self-cleavage is reported as 2.16.
Variant U49C A116G A118G has a self-cleavage of 0.59.
Variant U49C A92G U108C A114C has a self-cleavage of 0.
In the case of G50A G83U U132C, the self-cleavage is reported as 0.97.
Work on G50A A52G A90G U130A yielded a self-cleavage of 0.61.
